In PubChem BioAssay AID624417 (National Center for Advancing Translational Sciences (NCATS), 2012):
Out of some 410,000 compounds screened, about 6,400 (1.6%) were called active. Inconclusive results, whose numbers are uncertain, are shown with a selection of clear calls. Calls follow the shape of the dose curve; as a rule, active = well fitted inhibition curve with a large enough effect; inconclusive = small, poorly fitted or top-dose-only effect; inactive = no such curve, though single readings can be large or run the other way. No potency is given beside an inconclusive call; the fits are too rough.

Target: Glucagon-like peptide 1 receptor (Homo sapiens) (UniProt P43220)
Test: qHTS of GLP-1 Receptor Inverse Agonists (Inhibition Mode); also: nearly all actives have a fitted effect of over 55% in size
Conditions: HEK293 GLP-1R CRE-luciferase, luminescence, 24 h, GLP-1R form is constitutively active; activity change, negative = inhibition: at 38.3 µM (top of the series) unless noted
Method in brief: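 Assay principle: reduced luminescence from a cAMP-responsive reporter in HEK293 cells co-expressing a constitutively active GLP-1R. Conditions: 24 hr compound incubation, 37 deg C, 5% CO2.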
% is scaled to controls: 0 for no effect and ±100 for the full control effect; potency is read from the fitted curve at half-maximal effect; tags tell the direction and shape of the fitted curve.

Sequence of UniProt P43220 (P43220 whole entry, looked up): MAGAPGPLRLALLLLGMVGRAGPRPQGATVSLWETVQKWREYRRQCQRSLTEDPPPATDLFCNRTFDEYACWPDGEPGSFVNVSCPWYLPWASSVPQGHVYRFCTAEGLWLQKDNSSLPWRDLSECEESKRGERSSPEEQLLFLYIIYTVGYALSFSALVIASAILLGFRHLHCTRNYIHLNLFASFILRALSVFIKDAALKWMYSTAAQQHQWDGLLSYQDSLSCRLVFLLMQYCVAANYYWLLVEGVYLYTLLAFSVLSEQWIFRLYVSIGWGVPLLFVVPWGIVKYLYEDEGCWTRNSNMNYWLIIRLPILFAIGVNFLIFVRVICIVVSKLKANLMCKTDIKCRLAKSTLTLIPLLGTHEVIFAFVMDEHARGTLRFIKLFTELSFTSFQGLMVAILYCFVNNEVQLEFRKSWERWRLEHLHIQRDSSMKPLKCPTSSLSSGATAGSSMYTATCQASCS

SMILES | Potency | activity change, negative = inhibition
CC(=O)Nc1cc(C(=O)OCC(=O)c2ccccc2)ccc1C | inconclusive [inhibitor, single point] | –
O=C(CCc1nc(-c2cccs2)no1)NCc1ccc(F)cc1Cl | inconclusive [inhibitor, partial curve, poor fit] | –
Cn1nc(C(F)(F)F)c(-c2cccc(C(F)(F)F)c2)c1NC(=O)c1cccnc1 | inconclusive [inhibitor, partial curve, poor fit] | –
Cc1ccc2nc(-c3ccc(NS(=O)(=O)c4ccc(F)cc4)cc3)sc2c1 | inconclusive [inhibitor, single point] | –
CC(c1nccs1)N(C)C(=O)c1ccc(OC2CCN(CCc3ccccc3)CC2)cc1 (stereo unspecified) | inconclusive [inhibitor, partial curve, poor fit] | –
COc1ccc(-c2ncncc2-c2ccccc2)c(O)c1 | inconclusive [inhibitor, single point] | –
O=C(Nc1ccccc1)Nc1nnc(Cc2ccccc2F)s1 | inconclusive [inhibitor, full curve, poor fit] | –
CCOc1ccccc1CC1C(=O)Nc2ccc(Br)cc21 (stereo unspecified) | inconclusive [inhibitor, single point] | –
Cc1ccc(C)c(OCCCC(=O)Nc2nccs2)c1 | inconclusive [inhibitor, single point] | –
O=C(OCc1ccccc1Cl)c1cc([N+](=O)[O-])ccc1N1CCOCC1 | inconclusive [inhibitor, single point] | –
Cc1nc2cc(F)ccc2n1C1CCN(S(=O)(=O)c2ccccc2)CC1 | inconclusive [inhibitor, single point] | –
Cc1ccc(C(C(=O)NC2CCCC2)N(C(=O)c2csnn2)C2CC2)cc1 (stereo unspecified) | inconclusive [inhibitor, single point] | –
CCOc1ccccc1N=Nc1c(C)[nH]n(C(N)=S)c1=O | inconclusive [inhibitor, full curve, poor fit] | –
CCC1CCCCN1S(=O)(=O)c1ccc(NC(=O)c2cccnc2)cc1 (stereo unspecified) | inconclusive [inhibitor, single point] | –
C=CCNc1nc2c(c(=O)[nH]c(=O)n2C)n1CCOc1ccccc1 | – | inactive: 89.2%
CCC(C)Oc1cccc(C(=O)Nc2ccccc2N2CCOCC2)c1 (stereo unspecified) | inconclusive [inhibitor, partial curve, poor fit] | –
COC(=O)[C@@]12C[C@@H](CC(=O)NCc3cccs3)C(=O)N(Cc3ccc4c(c3)OCO4)C1=CCC(C)(C)C2 | inconclusive [inhibitor, partial curve, poor fit] | –
CCOC(=O)/C(=N/Nc1ccc(OC)cc1)Sc1nnc(CCc2ccccc2)n1-c1ccccc1 | inconclusive [inhibitor, single point] | –
Cc1ccc(C)c(N2CCN(Cc3csc(C)c3C)CC2)c1 | inconclusive [inhibitor, single point] | –
COc1ccccc1NC(=O)C(=O)N1N=C(C(C)C)CC1(O)C(F)(F)F (stereo unspecified) | inconclusive [inhibitor, single point] | –
Cc1cc(C2=NNC(=NC3CC3)SC2)c(C)n1-c1ccccc1F | inconclusive [inhibitor, full curve, poor fit] | –

SMILES | Potency | activity change, negative = inhibition
Nc1c(-c2nc(-c3cccs3)no2)nnn1-c1cccc(Cl)c1 | – | inactive: 34.2%
Cc1ccc2c(c1)c1c3n2CCCNC3CCC1 (stereo unspecified) | inconclusive [inhibitor, partial curve, poor fit] | –
CC(C)(C)N(Cc1ccccc1)C(=O)CN1C(=O)c2ccccc2S1(=O)=O | inconclusive [inhibitor, single point] | –
CCc1nc2ccc(C(=O)Nc3cc(-c4ccccc4)ccc3OC)cn2c1N(C)CCC(C)C | inconclusive [inhibitor, single point] | –
CC[C@@]1(c2ccccc2OC)ON(c2ccccc2C(F)(F)F)C1=O | – | inactive: -10.5%
CCOc1cc(CNCCc2ccccc2)ccc1OCC(=O)NC(C)(C)C | inconclusive [inhibitor, partial curve, poor fit] | –
COc1ccccc1NS(=O)(=O)c1cc(-c2cnc(C3CC3)o2)ccc1C | inconclusive [inhibitor, partial curve] | –
C[C@H]1CCC(=O)N(CCSc2ccc(Br)cc2)CC1 | inconclusive [inhibitor, single point] | –
Oc1csc(Cc2nc(-c3ccccc3F)cs2)n1 | inconclusive [inhibitor, single point] | –
O=C(NC(NC(=S)Nc1c(Cl)cccc1Cl)C(Cl)(Cl)Cl)OCc1ccccc1 (stereo unspecified) | inconclusive [inhibitor, full curve, poor fit] | –
Cc1ccc(C)c(S(=O)(=O)N2CCN(C(=O)CCCc3c[nH]c4ccccc34)CC2)c1 | inconclusive [inhibitor, partial curve, poor fit] | –
CC(=O)Oc1ccc(OC(C)=O)c(SCCCCCCl)c1 | inconclusive [inhibitor, single point] | –
COCCNC(=O)c1cc(-c2ccccc2OC)on1 | inconclusive [inhibitor, full curve, poor fit] | –
CC(C)(C)C1CCC(N2CCN(c3ccccc3)CC2)CC1 (stereo unspecified) | inconclusive [inhibitor, partial curve, poor fit] | –
COc1ccc(C(CNC(=O)c2cccc(S(=O)(=O)Nc3ccc(C)cc3)c2)N2CCCCC2)cc1 (stereo unspecified) | inconclusive [inhibitor, partial curve, poor fit] | –
CN1CCN(CC(O)COc2ccc(Cl)cc2)CC1 (stereo unspecified) | inconclusive [inhibitor, partial curve, poor fit] | –
O=S(=O)(Nc1ccc(N=Nc2ccc(O)c3ccccc23)cc1)c1ccccc1 | inconclusive [inhibitor, single point] | –
O=C(CNC(=O)c1ccccc1Cl)c1ccccc1 | – | inactive: -12.8%
O=S1(=O)CCC(NC(=S)SCc2ccccc2Br)C1 (stereo unspecified) | inconclusive [inhibitor, single point] | –
CCCCc1ccc(NC(=O)CSC2=NN3CCCC(=O)N=C3S2)cc1 | inconclusive [inhibitor, single point] | –
Cc1cc(N2CCCC2)ccc1/C=C1/C(=O)N(C)C(=S)N1C | inconclusive [inhibitor, full curve, poor fit] | –

SMILES | Potency | activity change, negative = inhibition
CC1C/C(=C/c2ccncc2)C(=O)/C(=C/c2ccncc2)C1 (stereo unspecified) | inconclusive [inhibitor, single point] | –
CCOC(=O)N1CCC(NC(=O)c2ccc3c(c2)N(Cc2ccc(F)cc2)C(=O)c2ccccc2S3(=O)=O)CC1 | inconclusive [inhibitor, partial curve, poor fit] | –
O=C(NC1CCCCC1)c1c(O)nc2sccn2c1=O | inconclusive [inhibitor, full curve, poor fit] | –
CSc1cccc(NC(=O)C2CCN(C(=O)c3ccccc3C)CC2)c1 | inconclusive [inhibitor, single point] | –
CCOc1cc(C2c3c(-c4ccc(Br)cc4)n[nH]c3C(=O)N2c2ccc(Cl)cc2)ccc1O (stereo unspecified) | inconclusive [inhibitor, partial curve, poor fit] | –
CCn1c(SCC(=O)N(C)CC(=O)Nc2cccc(OC)c2)nnc1-c1ccco1 | – | inactive: 4.62%
Cc1c(C(=O)N2CCN(S(=O)(=O)c3ccccc3)CC2)oc2ccc(Br)cc12 | inconclusive [inhibitor, single point] | –
COc1cc(OC)cc(C(=O)NCC(=O)OCC(=O)/C=C2/N(C)c3ccccc3C2(C)C)c1 | – | inactive: -20.5%
COc1ccc(C(O)c2nc(-c3ccc(OC)nc3)cs2)cc1 (stereo unspecified) | – | inactive: -6.1%
Cc1sc(NC(=O)c2ccco2)nc1-c1ccccc1 | inconclusive [inhibitor, single point] | –
Cc1ccc(N(Cc2cccs2)C(=O)c2ccc(Br)o2)cc1 | inconclusive [inhibitor, single point] | –
O=C(Nc1cccc(Cl)c1)OCCN1CCN(Cc2ccccc2)CCC1=O | inconclusive [inhibitor, single point] | –
Cc1ccc(-n2nc(C)c3c2NC2=C(C(=O)CC(C)(C)C2)C3c2ccccc2OCC(=O)O)cc1 (stereo unspecified) | inconclusive [inhibitor, single point] | –
Cc1ccc(NS(=O)(=O)c2ccc(N3CCN(c4ccc(O)cc4)CC3)c([N+](=O)[O-])c2)c(C)c1 | inconclusive [inhibitor, full curve, poor fit] | –
COCOc1cccc(CN2CCC2(C)C(=O)Nc2cc(OC)ccc2OC)c1 (stereo unspecified) | inconclusive [inhibitor, single point] | –
CCCCc1nc2cc(C(=O)N3CCN(c4nc(C)cnc4C)CC3)ccc2o1 | inconclusive [inhibitor, partial curve, poor fit] | –
Cc1cccc(C2Nc3ccccc3C(=O)N2c2ccccc2)n1 (stereo unspecified) | – | inactive: 6.4%
Cn1nc(C(=O)NCc2ccc(Cl)cc2)c2c1-c1ccccc1SC2 | inconclusive [inhibitor, partial curve, poor fit] | –
Oc1ccc(/C=N/Nc2nc(N3CCCCCC3)nc(N3CCCCCC3)n2)c(O)c1 | inconclusive [inhibitor, partial curve, poor fit] | –
